Earlier results as cited in patent US11732259B2, “Peptide oligonucleotide conjugates” (Sarepta Therapeutics, Inc., priority 2011, dated 2023).

Test system: exon 23 of the dystrophin gene
Conditions: MDX mouse; cited from earlier work

## GGCCAAACCTCGGCTTACCTGAAAT (morpholino, chemistry not fully specified) [M23D]
  Exon 23 skipping and restoration of functional dystrophin expression: known to induce
